Laboratory results: a collection of fitness landscapes (doi:10.1016/j.celrep.2020.107928)
Whole data set: some 81,000 sequences, median “one-hybrid fitness for binding parS DNA” near -0.17, cut for the highest 2% near 0.51. Some of the results follow.

B1: Caulobacter ParB omega fusion; a variant is named by its letters at X, in order, B8GW30 (parent)
chain: MESVVVGEPGMSEGRRGLGRGLSALLGEVDAAPAQAPGEQLGGSREAPIEILQRNPDQPRRTFREEDLEDLSNSIREKGVLQPILVRPSPDTAGEYQIVAGERAWRAAQRAGLKTVPIMVRELDDLAVLEIGIIENVQRADLNVLEEALSYKVLMEKFERTQENIAQTIGKSXSHVANXMRLLXLPDEVQSYLVSGELTAXHARAIAAAADPVALAKQIIEGGLSVRETEALARKAPNLSAGKSKGGRPPRVKDTDTQALESDLSSVLGLDVSIDHRGSTGTLTITYATLEQLDDLCNRLTRGI

Variants of: B1
Experiment: one-hybrid fitness for binding parS DNA (scaled: cognate 1, non-cognate 0); higher = stronger binding
Conditions: with parS DNA site
Method in brief: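 Bacterial one-hybrid selection in E. coli USO rpoZ- hisB- pyrF- with a HIS3 reporter carrying the site 19 bp from the promoter, screening Caulobacter ParB libraries with four specificity codons randomised (NNS). Cells grew 48 hours at 37°C on M9-minus-histidine plus 0.1 mM IPTG and 5 mM 3-AT. Plasmids before and after selection were Illumina-sequenced, three replicate libraries pooled, and variants under 10 reads dropped. Fitness is the log change in variant-to-wild-type read ratio, rescaled to cognate 1, non-cognate 0.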

Variant	one-hybrid fitness for binding parS DNA
RKED	≤ 0.2
GDES	≤ 0.2
TPKM	≤ 0.2
SKPG	≤ 0.2
MQYG	≤ 0.2
TEDN	≤ 0.2
MATF	≤ 0.2
NIFR	≤ 0.2
SLEL	≤ 0.2
SFLE	≤ 0.2
VCRI	≤ 0.2
PWKC	≤ 0.2
AEMW	≤ 0.2
PPTW	≤ 0.2
HTKN	≤ 0.2
PVII	≤ 0.2
NTHL	≤ 0.2
GVHC	≤ 0.2
ESQR	≤ 0.2
DRSD	≤ 0.2
RIYF	0.265
RRCY	0.26
PWKH	≤ 0.2
SVKR	≤ 0.2
RLHG	1.01

Variant	one-hybrid fitness for binding parS DNA
VAIN	≤ 0.2
KLVC	≤ 0.2
VPSP	≤ 0.2
GLQI	≤ 0.2
KKYR	≤ 0.2
RHST	0.854
GHKE	≤ 0.2
IKFI	≤ 0.2
TGYG	≤ 0.2
PCWV	≤ 0.2
DIAF	≤ 0.2
TGNF	≤ 0.2
NHIS	≤ 0.2
IRAA	≤ 0.2
PHPA	≤ 0.2
DAPF	≤ 0.2
KVAT	≤ 0.2
HSVT	≤ 0.2
KWKS	0.429
HALK	≤ 0.2
ECYG	≤ 0.2
HKAV	≤ 0.2
RTAN	0.429
QKKE	≤ 0.2
ENPT	≤ 0.2

Variant	one-hybrid fitness for binding parS DNA
QCNI	≤ 0.2
NNKV	≤ 0.2
VSGV	≤ 0.2
AHRE	≤ 0.2
GSKT	≤ 0.2
SPIG	≤ 0.2
NDYL	≤ 0.2
ARPG	≤ 0.2
NSIT	≤ 0.2
VRSL	≤ 0.2
EAIR	≤ 0.2
PQMS	≤ 0.2
FNYT	≤ 0.2
FRPA	≤ 0.2
VRTY	≤ 0.2
RTYH	0.266
RTKT	0.74
QLSS	≤ 0.2
SRHD	≤ 0.2
NEDR	≤ 0.2
QLIF	≤ 0.2
KATG	≤ 0.2
WDAM	≤ 0.2
QDCS	≤ 0.2
HEIS	≤ 0.2

Variant	one-hybrid fitness for binding parS DNA
GVGE	≤ 0.2
FESS	≤ 0.2
NTHA	≤ 0.2
WYQR	≤ 0.2
TSED	≤ 0.2
TWLN	≤ 0.2
RSHR	≤ 0.2
AEKA	≤ 0.2
LTWN	≤ 0.2
DTMA	≤ 0.2
PLVF	≤ 0.2
CAIG	≤ 0.2
MMSR	≤ 0.2
LEMC	≤ 0.2
WREL	≤ 0.2
SLLF	≤ 0.2
HLMT	≤ 0.2
DMSK	≤ 0.2
WRQA	≤ 0.2
KTMC	≤ 0.2
FAYC	≤ 0.2
SPAT	≤ 0.2
ASKC	≤ 0.2
PSDI	≤ 0.2
PMSP	≤ 0.2

Variant	one-hybrid fitness for binding parS DNA
RHQG	0.973
HSRH	≤ 0.2
ETKC	≤ 0.2
EHLS	≤ 0.2
EISP	≤ 0.2
QVND	≤ 0.2
FMAG	≤ 0.2
CGRY	≤ 0.2
LAVW	≤ 0.2
QILV	≤ 0.2
FNKS	≤ 0.2
SYYY	≤ 0.2
TAGD	≤ 0.2
RGSW	≤ 0.2
GFHT	≤ 0.2
AMDG	≤ 0.2
EVAF	≤ 0.2
MADY	≤ 0.2
HQWR	≤ 0.2
EMSI	≤ 0.2
PEQW	≤ 0.2
DFQC	≤ 0.2
GPHA	≤ 0.2
SATI	≤ 0.2
QGRR	≤ 0.2

Variant	one-hybrid fitness for binding parS DNA
TQNY	≤ 0.2
RQAI	≤ 0.2
AHRR	≤ 0.2
NYFR	≤ 0.2
TPCL	≤ 0.2
YLMG	≤ 0.2
GMRR	≤ 0.2
VWGF	≤ 0.2
QNKR	≤ 0.2
RDPC	≤ 0.2
QKYN	≤ 0.2
GSPK	≤ 0.2
SHNN	≤ 0.2
QILG	≤ 0.2
QGTD	≤ 0.2
DERH	≤ 0.2
QHYC	≤ 0.2
MPKV	≤ 0.2
GTFT	≤ 0.2
WPVW	≤ 0.2
RQII	≤ 0.2
LCKC	≤ 0.2
QMLR	≤ 0.2
HYDS	≤ 0.2
PHRC	≤ 0.2

Variant	one-hybrid fitness for binding parS DNA
ATHC	≤ 0.2
DALV	≤ 0.2
NYKC	≤ 0.2
AIVN	≤ 0.2
VWTM	≤ 0.2
NMFK	≤ 0.2
FIHC	≤ 0.2
TCMV	≤ 0.2
PNWP	≤ 0.2
PSQS	≤ 0.2
MNGR	≤ 0.2
LCNI	≤ 0.2
IGPE	≤ 0.2
THKH	≤ 0.2
PIYW	≤ 0.2
GLTY	≤ 0.2
IPCR	≤ 0.2
RWHY	0.275
PPSD	≤ 0.2
AAGS	≤ 0.2
QREE	≤ 0.2
RMTR	≤ 0.2
SMLL	≤ 0.2
FNHC	≤ 0.2
PTLM	≤ 0.2

Variant	one-hybrid fitness for binding parS DNA
CVFG	≤ 0.2
RYVI	≤ 0.2
LQTN	≤ 0.2
FAKT	≤ 0.2
LSGI	≤ 0.2
MLKA	≤ 0.2
TSNV	≤ 0.2
CLCT	≤ 0.2
RAWG	0.989
HAHE	≤ 0.2
QAPL	≤ 0.2
ATFH	≤ 0.2
NIHF	≤ 0.2
HIYR	≤ 0.2
YPCW	≤ 0.2
PTNN	≤ 0.2
HKRW	≤ 0.2
SQAH	≤ 0.2
QQGM	≤ 0.2
SQWS	≤ 0.2
